How the values were obtained:
FcγR2B = molecular target: T1, FcγR2B (human, UniProt P31994 46-217, limits assumed); assay: SPR, chip-bound Fc receptor
T1 sequence (looked up): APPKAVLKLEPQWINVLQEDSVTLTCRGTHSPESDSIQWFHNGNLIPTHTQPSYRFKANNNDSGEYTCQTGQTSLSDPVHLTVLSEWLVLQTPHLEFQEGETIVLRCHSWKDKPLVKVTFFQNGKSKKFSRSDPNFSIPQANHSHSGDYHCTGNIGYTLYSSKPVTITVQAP

neonatal receptor FcRn = molecular target: T2, neonatal receptor FcRn (human, UniProt P55899 partial chain; P61769 partial chain); assay: SPR, chip-bound Fc receptor
neonatal receptor FcRn, sequence (P55899 24-297 limits assumed, form in doubt, chain 1 of 2): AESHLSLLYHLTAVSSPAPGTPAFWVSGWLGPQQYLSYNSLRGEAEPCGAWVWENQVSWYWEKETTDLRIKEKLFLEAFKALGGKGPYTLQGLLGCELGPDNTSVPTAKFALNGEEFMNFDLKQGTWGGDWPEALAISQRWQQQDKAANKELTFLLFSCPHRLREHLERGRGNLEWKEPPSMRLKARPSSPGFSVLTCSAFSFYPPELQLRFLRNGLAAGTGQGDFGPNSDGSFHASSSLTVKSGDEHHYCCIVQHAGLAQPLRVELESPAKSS
neonatal receptor FcRn, sequence (P61769 21-119 limits assumed, form in doubt, chain 2 of 2, further chain): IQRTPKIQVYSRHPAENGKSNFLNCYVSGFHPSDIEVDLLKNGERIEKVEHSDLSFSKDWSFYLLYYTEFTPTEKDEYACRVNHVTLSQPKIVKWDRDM
T2 construct: also called recombinant human FcRn

B1: human CD172a-Fc-OX40L (Fc fusion)
chain: [… about 350 residues …]SKYGPPCPSCPAPEFLGGPSVFLFPPKPKDTLMISRTPEVTCVVVDVSQEDPEVQFNWYVDGVEVHNAKTKPREEQFNSTYRVVSVLTVLHQDWLSGKEYKCKVSSKGLPSSIEKTISNATGQPREPQVYTLPPSQEEMTKNQVSLTCLVKGFYPSDIAVEWESNGQPENNYKTTPPVLDSDGSFFLYSRLTVDKSSWQEGNVFSCSVMHEALHNHYTQKSLSLSLGKIEGRMDQVSHRYPRIQSIKVQFTEYKKEKGFILTSQKEDEIMKVQNNSVIINCDGFYLISLKGYFSQEVNISLHYQKDEEPLFQLKKVRSVNSLMVASLTYKDKVYLNVTTDNTSLDDFHVNGGELILIHQNPGEFCVL
notes: The entry includes the native leader; no cleavage site is stated; also called hCD172a-Fc-OX40L
FcγR2B
  binding result: no binding
Neonatal receptor FcRn
  Kd: 790 nM

From patent US20180326005A1 (HEAT BIOLOGICS, published 2018)
